Data published in PubChem BioAssay AID743279 (National Center for Advancing Translational Sciences (NCATS), 2014).
Screen size: about 360,000 compounds; about 17,000 (4.7%) were called active. The shares of active, inactive and inconclusive entries below differ from those in the screen. Rule as the data show it: active = activity change below about -50%; inconclusive = mostly about -30% to -49%; inactive = weaker than that.
% is scaled to controls: 0 for no effect and ±100 for the full control effect.

Experiment: qHTS for Inhibitors of Inflammasome Signaling: IL-1-beta AlphaLISA Primary Screen
Settings: THP-1 LPS/ATP IL-1B secretion, 16 h; at 57.5 µM, stronger effect = lower value
Procedure, shortened: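 THP-1 cells pretreated 1 hr with compounds (up to 57.5 uM final), then stimulated with LPS (250 ng/mL final) plus ATP (1.25 mM final); secreted IL-1B measured by AlphaLISA after 16 hr, decreased signal indicating inhibition.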
With `CN(Cc1ccccc1)C(=O)COC(=O)c1cc(S(=O)(=O)N(C)C)ccc1N1CCCC1` the activity change was inconclusive: -31.3%. With `CC(=O)Nc1ccc(C(=O)Nc2ccc(S(=O)(=O)Nc3nccc(C)n3)cc2)cc1` the activity change was inactive: 4.71%. For `Cc1cc(OCc2nc(N)nc(N)c2-c2ccc(Cl)c(Cl)c2)ccc1[N+](=O)[O-]`, the activity change was active: -52.6%. For `CSc1cccc(CNC(=O)C2CCC(=O)N(CCc3ccccc3)C2)c1` (stereo not drawn), the activity change was inactive: -5.16%. In the case of `COc1ccc(N(CC(=O)Nc2ccccc2Cl)S(=O)(=O)c2ccc(C)cc2)cc1OC`, the activity change is reported as inconclusive: -31.5%. For `Cc1ccc(SCCC(=O)N2CCC(C)CC2)cc1`, the activity change was inconclusive: -47.5%. With `Nc1c(C(=O)Nc2ccc3c(c2)OCCO3)nnn1Cc1cccc(Br)c1` the activity change was active: -51.3%. In the case of `Cc1ccc2nc(/C(C#N)=C\c3ccc(N4CCCCC4)c([N+](=O)[O-])c3)[nH]c2c1`, the activity change is reported as inconclusive: -36%. For `CCN(CC(=O)Nc1ccc(S(=O)(=O)N2CCCC2)cc1)CC(=O)Nc1ccccc1C(F)(F)F`, the activity change was inconclusive: -41.4%. With `COc1ccc(NC(=S)NNC(=S)Nc2cccc(C(F)(F)F)c2)cc1` the activity change was inconclusive: -46%. For `CCc1[nH]nc2c1C(c1ccncc1)C(C#N)=C(N)O2` (stereo not drawn), the activity change was inconclusive: -34.9%. In the case of `COc1ccc(CNc2nc3ccccc3n2C(C)C)c(O)c1`, the activity change is reported as inconclusive: -45.2%. In the case of `CC(C)(C)NC(=O)C[C@H]1C[C@H](C(=O)N2CCOCC2)[C@@]2(CCC3CCCC3)c3[nH]c4ccc(Cl)cc4c3CCN2C1=O`, the activity change is reported as active: -60.3%. For `CC(=O)N(c1ccccc1)c1ccccc1[N+](=O)[O-]`, the activity change was inactive: 25.2%. In the case of `Cc1oc2c(C)c3oc(=O)c(CCC(=O)NCCCN4CCOCC4)c(C)c3cc2c1C`, the activity change is reported as inconclusive: -43.1%. With `CC(NC(=O)Nc1ccc(Cl)cc1)c1ccccc1` (stereo not drawn) the activity change was inactive: -3.67%. With `COc1ccccc1C1CCN(Cc2ccc3ccccc3c2)CC1` the activity change was active: -60.9%. In the case of `COc1ccc(-c2nc(-c3ccc4c(c3)OCO4)[nH]c2-c2ccc(OC)cc2)cc1`, the activity change is reported as inconclusive: -31.3%. With `O=C(N/N=C/c1ccccc1Cl)c1cccc(F)c1` the activity change was inconclusive: -34.9%. In the case of `COC(=O)c1ccc(C(C(=O)NCc2ccccc2)N(Cc2ccco2)C(=O)c2cnccn2)cc1` (stereo not drawn), the activity change is reported as active: -59.2%. For `O=C1c2ccccc2S(=O)(=O)c2cc(C(=O)N3CCN(c4ccccc4)CC3)ccc21`, the activity change was inconclusive: -38.3%. For `Cc1nc2nc(C)c(CCC(=O)N3CCN(c4ccccc4)CC3)c(C)n2n1`, the activity change was inactive: -17.6%. In the case of `O=C(CC(c1ccccc1)c1ccccc1)Nc1ccc(Cl)cn1`, the activity change is reported as inactive: 6.19%.
